According to patent US20030181375A1, “Rapid phenotypic cell-based HIV assay” (priority 2002, published 2003):

How the values were obtained:
HIVBru = assay: HIV drug susceptibility assay in R3/X4/R5 cells, HIVBru
HIV 89.6 = assay: HIV drug susceptibility assay in R3/X4/R5 cells, HIV 89.6
[1] = test system: HIV clinical isolate A018-G910-6; assay: microbe, parasite or virus in culture; format: cell-based; conditions: for IC50: average of four determinations; for susceptibility of the isolate to the drug (in words): judged from IC50, post-AZT isolate
[2] = test system: HIV clinical isolate A018-H112-2; assay: HIV drug susceptibility assay in R3/X4/R5 cells, pre-AZT clinical isolate; format: cell-based; conditions: for IC50: average of four determinations; for susceptibility of the isolate to the drug (in words): judged from IC50, pre-AZT isolate
[3] = test system: HIV clinical isolate 93000016; assay: HIV drug susceptibility assay in R3/X4/R5 cells, clinical isolate 93000016; conditions: for susceptibility of the isolate to the drug (in words): judged from IC50; for % GFP + CELLS: 48 hr, no-drug control 84.4%
[4] = test system: AZT susceptible HIV clinical isolate; assay: HIV drug susceptibility assay in R3/X4/R5 cells, AZT susceptible clinical isolate; format: cell-based; conditions: Human immunodeficiency virus 1; no-drug control 26.8% GFP expressing cells
HIVIIIB = assay: HIV drug susceptibility assay in R3/X4/R5 cells, GFP by flow cytometry, cell free HIVIIIB; format: cell-based
[5] = test system: HIV clinical isolate 93000057; assay: HIV drug susceptibility assay in R3/X4/R5 cells, clinical isolate 93000057; conditions: for % GFP + CELLS: 48 hr, no-drug control 10.7%
R3/X4/R5 cells = assay: GFP expression in uninfected R3/X4/R5 cells treated with drug; format: cell-based
HIVJKNL43 = assay: HIV drug susceptibility assay in R3/X4/R5 cells, macrophage tropic virus; format: cell-based; conditions: for % GFP + CELLS: no-drug control 33.1%
[6] = test system: H9 cells chronically infected with HIVIIIB; assay: Drug susceptibility assay with virus infected cells as source of HIV; format: cell-based; conditions: 0.05 μM AZT; 48 hr; 71.4% in the absence of AZT
[7] = test system: HIV clinical isolate 93000029; assay: HIV drug susceptibility assay in R3/X4/R5 cells, clinical isolate 93000029; conditions: for % GFP + CELLS: 48 hr, no-drug control 34.1%
[8] = Human immunodeficiency virus 1, read-out: Average IC50
[9] = read-out: Average IC50, average of four determinations
[10] = Human immunodeficiency virus 1, Table 2, 50% reduction of GFP expressing cells

## Nc1ccn([C@@H]2CS[C@H](CO)O2)c(=O)n1 [3TC, Lamivudine]
HIVBru; [8]
  IC50: 1020 ± 130 nM

## Nc1nc(NC2CC2)c2ncn([C@H]3C=C[C@@H](CO)C3)c2n1.O=C(O)CCC(=O)O [ABC, Abacavir Succinate]
HIV 89.6; [9]
  IC50: 1660 ± 540 nM
HIVBru; [9]
  IC50: 1160 ± 390 nM
[1]
  IC50: 2250 ± 200 nM
  susceptibility of the isolate to the drug (in words): sensitive
[2]
  IC50: 2520 ± 580 nM
  susceptibility of the isolate to the drug (in words): sensitivity
[3]
  susceptibility of the isolate to the drug (in words): sensitivity
[3]; [9]
  IC50: 1600 ± 60 nM

## Cc1cn([C@H]2C[C@H](N=[N+]=[N-])[C@@H](CO)O2)c(=O)[nH]c1=O [AZT, Zidovudine]
HIV 89.6; [8]
  IC50: 30 ± 9 nM
[4]
  IC50: 34 nM
HIVIIIB; AZT 0.1 μM, 48 hr, no-drug control 29.6%
  % GFP + CELLS: 11.6%
HIVIIIB; AZT 1.0 μM, 48 hr, no-drug control 29.6%
  % GFP + CELLS: 8.3%
HIVIIIB; AZT 10 μM, 48 hr, no-drug control 29.6%
  % GFP + CELLS: 0.4%
HIVIIIB; Human immunodeficiency virus 1, Table 3, lymphotropic virus, read-out: IC50
  IC50: 100 nM
HIVIIIB; Table 3, AZT 0.1 μM, no-drug control 71.4%
  % GFP + CELLS: 35.5%
HIVIIIB; Table 3, AZT 1.0 μM, no-drug control 71.4%
  % GFP + CELLS: 31.5%
HIVIIIB; Table 3, AZT 10.0 μM, no-drug control 71.4%
  % GFP + CELLS: 29.6%
HIVIIIB; Table 4, AZT 0.1 μM, 48 hr, no-drug control 13.8%
  % GFP + CELLS: 0.8%
HIVIIIB; Table 4, AZT 1.0 μM, 48 hr, no-drug control 13.8%
  % GFP + CELLS: 0.7%
HIVIIIB; Table 4, AZT 10 μM, 48 hr, no-drug control 13.8%
  % GFP + CELLS: 0.5%
[5]; AZT 0.1 μM, 1.2 × 10^10 COPIES/ml
  % GFP + CELLS: 2.6%
[5]; AZT 1.0 μM
  % GFP + CELLS: 0.7%
[5]; AZT 10.0 μM
  % GFP + CELLS: 0.7%
[5]; Human immunodeficiency virus 1
  IC50: 70 nM
[5]; judged from IC50
  susceptibility of the isolate to the drug (in words): susceptible
[1]; Human immunodeficiency virus 1
  IC50: > 20000 nM
[1]
  susceptibility of the isolate to the drug (in words): resistant
[2]; Human immunodeficiency virus 1
  IC50: 190 ± 20 nM
[2]
  susceptibility of the isolate to the drug (in words): sensitivity
R3/X4/R5 cells; AZT 10 μM
  % GFP + CELLS: 0.1%
[3]; AZT 0.1 μM, 3.3 × 10^10 COPIES/ml
  % GFP + CELLS: 7.1%
[3]; AZT 1.0 μM
  % GFP + CELLS: 1.6%
[3]; AZT 10.0 μM
  % GFP + CELLS: 1.6%
[3]; Human immunodeficiency virus 1
  IC50: 60 nM
[3]; [8]
  IC50: 60 ± 40 nM
HIVJKNL43; AZT 0.1 μM
  % GFP + CELLS: 14.9%
HIVJKNL43; AZT 1.0 μM
  % GFP + CELLS: 17.1%
HIVJKNL43; AZT 10.0 μM
  % GFP + CELLS: 11.1%
HIVJKNL43; Human immunodeficiency virus 1, Macrophage
  IC50: 90 nM
[6]
  % of the cells express GFP: 35.1%
[7]; AZT 0.1 μM, 3.5 × 10^10 COPIES/ml
  % GFP + CELLS: 1.2%
[7]; AZT 1.0 μM
  % GFP + CELLS: 0.6%
[7]; AZT 10 μM
  % GFP + CELLS: 1.1%
[7]; Human immunodeficiency virus 1
  IC50: 40 nM
[7]; judged from IC50
  susceptibility of the isolate to the drug (in words): susceptible

## CC(C)CN(C[C@@H](O)[C@H](Cc1ccccc1)NC(=O)O[C@H]1CCOC1)S(=O)(=O)c1ccc(N)cc1 [Amprenavir]
HIVIIIB; AMP 10 nM, 48 hr, no-drug control 46.3%
  % GFP + CELLS: 25.5%
HIVIIIB; AMP 100 nM, 48 hr, no-drug control 46.3%
  % GFP + CELLS: 1.1%
HIVIIIB; AMP 1000 nM, 48 hr, no-drug control 46.3%
  % GFP + CELLS: 0.1%
HIVIIIB; [10]
  IC50: 10.8 nM
R3/X4/R5 cells; AMP 1000 nM
  % GFP + CELLS: 0.1%

## CC(C)Nc1cccnc1N1CCN(C(=O)c2cc3cc(NS(C)(=O)=O)ccc3[nH]2)CC1 [DLV, Delavirdine]
HIV 89.6; [8]
  IC50: 30 ± 5 nM
[1]
  susceptibility of the isolate to the drug (in words): sensitive
[2]; Human immunodeficiency virus 1
  IC50: 40 ± 10 nM
[2]
  susceptibility of the isolate to the drug (in words): sensitivity
[3]; [8]
  IC50: 50 ± 20 nM
[3]
  susceptibility of the isolate to the drug (in words): sensitivity

## O=C1Nc2ccc(Cl)cc2[C@@](C#CC2CC2)(C(F)(F)F)O1 [Efavirenz]
HIVIIIB; EFA 1 nM, 48 hr, no-drug control 35.0%
  % GFP + CELLS: 15.7%
HIVIIIB; EFA 1 nM, reduction in GFP expressing cells vs no drug
  % REDUCTION: 55.14%
HIVIIIB; EFA 10 nM, 48 hr, no-drug control 35.0%
  % GFP + CELLS: 4.3%
HIVIIIB; EFA 100 nM, 48 hr, no-drug control 35.0%
  % GFP + CELLS: 0.8%
HIVIIIB; [10]
  IC50: 1.56 nM
R3/X4/R5 cells; EFA 100 nM
  % GFP + CELLS: 0.2%

Like-named read-outs stand apart in the source and are kept apart here.
